{
  "source": "the supplement of paper PMC10037445",
  "key": {"[1]": {"test_system": "RAW-Dual", "experiment": "NF-kB SEAP reporter activity, fold change vs agonist alone; higher = enhanced NF-kB activity", "details": "library stock concentration (final ~1000-fold dilution): 10 mM", "summary_of_the_method": "(§1)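 Reporter activity is given as fold change relative to agonist-alone wells. To measure it, 50 nL of library stock was pin-tooled onto RAW-Dual macrophages (50,000 cells/well, DMEM, 384-well plates), a PRR agonist followed 1 h later, and cells stayed at 37 °C, 5% CO2. Twenty hours on, supernatant was assayed for IRF (QuantiLuc luminescence) and NF-κB (QuantiBlue, 620 nm absorbance), and wells under 70% of agonist-control IncuCyte confluency in both mask sets were marked cytotoxic.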"}, "[2]": {"test_system": "RAW-Dual", "experiment": "NF-kB SEAP reporter activity, fold change vs agonist alone; cytotoxicity flag (confluency mask): not cytotoxic; higher = enhanced NF-kB activity", "summary_of_the_method": "as §1"}, "[3]": {"test_system": "RAW-Dual", "experiment": "NF-kB SEAP reporter activity, fold change vs agonist alone; cytotoxicity flag (confluency mask): cytotoxic (confluency <70% of control); higher = enhanced NF-kB activity", "summary_of_the_method": "as §1"}, "[4]": {"details": "cytotoxicity flag (confluency mask): not cytotoxic, agonist: Imiquimod (TLR7) […]"}, "[5]": {"details": "cytotoxicity flag (confluency mask): not cytotoxic, agonist: MPLA (TLR4) […]"}, "[6]": {"details": "agonist: ODN 1826 (TLR9) 0.5 ug/mL"}, "[7]": {"details": "agonist: Pam2CSK4 (TLR2/6) 0.1 ug/mL"}, "[8]": {"details": "agonist: Pam3CSK4 (TLR2/1) 0.1 ug/mL"}},
  "note": "Over roughly 2,900 compounds, “NF-kB SEAP reporter activity, fold change vs agonist alone” has its median near 0.99; the highest 2% begin near 2.6. This is one part of the list.",
  "data": [
    {"compound": "N#Cc1cnc(Nc2cc(NCC3CNCCO3)c(C(F)(F)F)cn2)cn1", "note": "(stereo not given)", "values": [
      {"measurement": "NF-kB SEAP reporter activity", "setting": "[1]; [4]", "result": 1.66},
      {"measurement": "NF-kB SEAP reporter activity", "setting": "[1]; [5]", "result": 0.936}
    ]},
    {"compound": "CC(C(=O)O)c1ccc(CC2CCCC2=O)cc1", "note": "(stereo not given)", "values": [
      {"measurement": "NF-kB SEAP reporter activity", "setting": "[1]; [5]", "result": 1.05}
    ]},
    {"compound": "CC(C(=O)O)c1ccc(CC2CCCC2=O)cc1", "note": "(stereo not given) (library stock concentration (final ~1000-fold dilution): 10 mM)", "values": [
      {"measurement": "NF-kB SEAP reporter activity", "setting": "[2]; agonist: LPS (TLR4) 0.1 ug/mL", "result": 1.06},
      {"measurement": "NF-kB SEAP reporter activity", "setting": "[2]; [6]", "result": 1.03},
      {"measurement": "NF-kB SEAP reporter activity", "setting": "[2]; [7]", "result": 1.13},
      {"measurement": "NF-kB SEAP reporter activity", "setting": "[2]; [8]", "result": 1.26}
    ]},
    {"compound": "CC1c2cccc(O)c2C(=O)C2=C(O)C3(O)C(=O)C(C(N)=O)=C(O)C(N(C)C)C3C(O)C21.CC1c2cccc(O)c2C(=O)C2=C(O)C3(O)C(=O)C(C(N)=O)=C(O)C(N(C)C)C3C(O)C21.CCO.Cl.Cl.O", "note": "(stereo not given) (library stock concentration (final ~1000-fold dilution): 10 mM)", "values": [
      {"measurement": "NF-kB SEAP reporter activity", "setting": "[2]; agonist: LPS (TLR4) 0.1 ug/mL", "result": 1.6},
      {"measurement": "NF-kB SEAP reporter activity", "setting": "[2]; [6]", "result": 0.969},
      {"measurement": "NF-kB SEAP reporter activity", "setting": "[2]; [7]", "result": 1.26},
      {"measurement": "NF-kB SEAP reporter activity", "setting": "[2]; [8]", "result": 0.938}
    ]},
    {"compound": "CC1c2cccc(O)c2C(=O)C2=C(O)C3(O)C(=O)C(C(N)=O)=C(O)C(N(C)C)C3C(O)C21.CC1c2cccc(O)c2C(=O)C2=C(O)C3(O)C(=O)C(C(N)=O)=C(O)C(N(C)C)C3C(O)C21.CCO.Cl.Cl.O", "note": "(stereo not given)", "values": [
      {"measurement": "NF-kB SEAP reporter activity", "setting": "[1]; [4]", "result": 0.998},
      {"measurement": "NF-kB SEAP reporter activity", "setting": "[1]; [5]", "result": 1.13}
    ]},
    {"compound": "COC(C(=O)N1Cc2[nH]nc(NC(=O)c3ccc(N4CCN(C)CC4)cc3)c2C1)c1ccccc1", "note": "(stereo not given)", "values": [
      {"measurement": "NF-kB SEAP reporter activity", "setting": "[1]; [4]", "result": 2.05},
      {"measurement": "NF-kB SEAP reporter activity", "setting": "[1]; [5]", "result": 1.15}
    ]},
    {"compound": "COC(C(=O)N1Cc2[nH]nc(NC(=O)c3ccc(N4CCN(C)CC4)cc3)c2C1)c1ccccc1", "note": "(stereo not given) (library stock concentration (final ~1000-fold dilution): 10 mM)", "values": [
      {"measurement": "NF-kB SEAP reporter activity", "setting": "[2]; agonist: LPS (TLR4) 0.1 ug/mL", "result": 0.879},
      {"measurement": "NF-kB SEAP reporter activity", "setting": "[2]; [6]", "result": 2.15},
      {"measurement": "NF-kB SEAP reporter activity", "setting": "[2]; [7]", "result": 1.67},
      {"measurement": "NF-kB SEAP reporter activity", "setting": "[2]; [8]", "result": 1.67}
    ]},
    {"compound": "CCS(=O)(=O)O.COC(=O)c1ccc2c(c1)NC(=O)/C2=C(\\Nc1ccc(N(C)C(=O)CN2CCN(C)CC2)cc1)c1ccccc1", "values": [
      {"measurement": "NF-kB SEAP reporter activity", "setting": "[1]; [5]", "result": 2.25}
    ]},
    {"compound": "CCS(=O)(=O)O.COC(=O)c1ccc2c(c1)NC(=O)/C2=C(\\Nc1ccc(N(C)C(=O)CN2CCN(C)CC2)cc1)c1ccccc1", "note": "(library stock concentration (final ~1000-fold dilution): 10 mM)", "values": [
      {"measurement": "NF-kB SEAP reporter activity", "setting": "[2]; agonist: LPS (TLR4) 0.1 ug/mL", "result": 2.02},
      {"measurement": "NF-kB SEAP reporter activity", "setting": "[2]; [6]", "result": 0.222},
      {"measurement": "NF-kB SEAP reporter activity", "setting": "[2]; [7]", "result": 1.61},
      {"measurement": "NF-kB SEAP reporter activity", "setting": "[2]; [8]", "result": 1.31}
    ]},
    {"compound": "CONC(=O)c1ccccc1Nc1cc(Nc2cc(C)nn2C(C)C)ncc1Cl", "note": "(library stock concentration (final ~1000-fold dilution): 10 mM)", "values": [
      {"measurement": "NF-kB SEAP reporter activity", "setting": "[2]; agonist: LPS (TLR4) 0.1 ug/mL", "result": 0.82},
      {"measurement": "NF-kB SEAP reporter activity", "setting": "[2]; [6]", "result": 1.73},
      {"measurement": "NF-kB SEAP reporter activity", "setting": "[2]; [7]", "result": 0.957},
      {"measurement": "NF-kB SEAP reporter activity", "setting": "[2]; [8]", "result": 1.25}
    ]},
    {"compound": "CONC(=O)c1ccccc1Nc1cc(Nc2cc(C)nn2C(C)C)ncc1Cl", "values": [
      {"measurement": "NF-kB SEAP reporter activity", "setting": "[1]; [4]", "result": 1.18},
      {"measurement": "NF-kB SEAP reporter activity", "setting": "[1]; [5]", "result": 0.931}
    ]},
    {"compound": "CS(=O)(=O)O.CS(=O)(=O)O.Cc1ccc(C(=O)Nc2ccc(CN3CCN(C)CC3)c(C(F)(F)F)c2)cc1C#Cc1cnc2[nH]ncc2c1", "values": [
      {"measurement": "NF-kB SEAP reporter activity", "setting": "[1]; cytotoxicity flag (confluency mask): cytotoxic (confluency <70% of control), agonist: Imiquimod (TLR7) […]", "result": 0.129},
      {"measurement": "NF-kB SEAP reporter activity", "setting": "[1]; cytotoxicity flag (confluency mask): cytotoxic (confluency <70% of control), agonist: MPLA (TLR4) […]", "result": 0.214}
    ]},
    {"compound": "CS(=O)(=O)O.CS(=O)(=O)O.Cc1ccc(C(=O)Nc2ccc(CN3CCN(C)CC3)c(C(F)(F)F)c2)cc1C#Cc1cnc2[nH]ncc2c1", "note": "(library stock concentration (final ~1000-fold dilution): 10 mM)", "values": [
      {"measurement": "NF-kB SEAP reporter activity", "setting": "[3]; agonist: LPS (TLR4) 0.1 ug/mL", "result": 0.191},
      {"measurement": "NF-kB SEAP reporter activity", "setting": "[3]; [6]", "result": 0.183},
      {"measurement": "NF-kB SEAP reporter activity", "setting": "[3]; [7]", "result": 0.0586},
      {"measurement": "NF-kB SEAP reporter activity", "setting": "[3]; [8]", "result": 0.138}
    ]},
    {"compound": "CC(=O)NC1C(NC(=N)N)C=C(C(=O)O)OC1C(O)C(O)CO", "note": "(stereo not given) (library stock concentration (final ~1000-fold dilution): 10 mM water)", "values": [
      {"measurement": "NF-kB SEAP reporter activity", "setting": "[2]; agonist: LPS (TLR4) 0.1 ug/mL", "result": 1.37},
      {"measurement": "NF-kB SEAP reporter activity", "setting": "[2]; [6]", "result": 1.17},
      {"measurement": "NF-kB SEAP reporter activity", "setting": "[2]; [7]", "result": 1.19},
      {"measurement": "NF-kB SEAP reporter activity", "setting": "[2]; [8]", "result": 1.07}
    ]}
  ]
}
